# Experimental data from PubChem BioAssay AID1508649 (National Center for Advancing Translational Sciences (NCATS), 2021).
# About 830 (1.9%) of roughly 43,000 compounds were called active. This list was built around the results that the source calls inconclusive (neither active nor inactive); the mix of calls is not that of the screen. Rule for the calls: active = clear falling dose curves in both reporters; inconclusive = both reporters move, but less clearly or upward; inactive = either reporter flat; the % is the NLuc reporter signal. Potencies of inconclusive entries are left out as doubtful fits.
# Experiment: Cell-based coincidence reporter assay to measure PMP22 gene transcription in S16 Pmp22-F2sN cells - Primary screen
# Conditions: S16 Pmp22-F2sN Schwann cells (luciferase reporters placed in the Pmp22 gene), FLuc/NLuc coincidence luminescence, 24 h; measured here: NLuc reporter readout, at 57.5 µM (top of the series); activity change, negative = inhibition: at the top concentration
# Summary of the method: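 Reporter cells (S16 Pmp22-F2sN, 500–1,000 per well) exposed to compounds for 24 h, 37C, 5% CO2; lysis with FLuc read after 10 min, then Stop&Glo and NLuc read after 10 min.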
# % is set by controls: 0 for no effect and ±100 for the full control effect; potency is the fitted concentration of half-maximal effect; tags give direction and shape of the fitted curve.
SMILES,Potency,"activity change, negative = inhibition"
Cc1ccc(C(c2ccccc2)c2c(C)[nH]c3ccccc23)s1 (stereo not drawn),"inconclusive [phenotype inactive, single point]",
COc1cccc(NC(=O)Cn2c(=O)n(CC(=O)NCc3ccc(C)cc3)c(=O)c3sccc32)c1,"inconclusive [phenotype inactive, single point]",
CC(C)NC(=O)Cn1c(=O)nc(-c2ccccc2F)c2cc(Cl)ccc21,,inactive: -6.31%
CCc1nn2c(=O)cc(COC(=O)c3ccc(NC(=O)c4cccs4)cc3)nc2s1,,inactive: -48.8%
COc1ccc(-c2nc(C)c(CCNC(=O)C(=O)Nc3ccccc3C#N)s2)cc1OC,,inactive: -8.72%
COc1cc(NC(=O)CC(c2ccc(C)cc2)N2Cc3ccccc3C2=O)cc(OC)c1 (stereo not drawn),"inconclusive [phenotype inactive, single point]",
Cc1cc(Nc2ccccc2C)nc(-n2nc(C)cc2C)n1,"inconclusive [phenotype inactive, partial curve]",
CCOc1ccccc1Nc1sc(C(=O)c2ccccc2)c(N)c1C(=O)NCCc1ccccc1,"inconclusive [phenotype inactive, single point]",
CCOC(=O)c1ccc(NC(=O)CCS(=O)(=O)c2ccc(C)cc2)cc1,"inconclusive [phenotype inactive, single point]",
COC(=O)CC1Oc2ccc(F)cc2-n2cc(-c3ccc(Cl)cc3)nc21 (stereo not drawn),"inconclusive [phenotype inactive, single point]",
COc1ccc(CNc2oc(-c3ccc(COc4ccc(Cl)cc4)o3)nc2C#N)cc1,,inactive: -23.7%
CC(C)CSc1oc(-c2ccco2)nc1S(=O)(=O)c1ccc(Br)cc1,"inconclusive [phenotype inactive, single point]",
CCOc1ccc(C2=CC(c3cc(Br)ccc3F)n3ncnc3N2)cc1Cl (stereo not drawn),,inactive: 1.23%
COc1ccc(CNC(=O)c2cc(C)nc3c2c(C)nn3-c2cccc(Cl)c2C)cc1,"inconclusive [phenotype inactive, single point]",
COc1cc2ccccc2cc1C(=O)Nc1ccc2oc(-c3ccccc3)nc2c1,"inconclusive [phenotype inactive, single point]",
COc1ccc(Nc2ncc3c(n2)CCN(C(=O)OC(C)(C)C)C3)cc1,"inconclusive [phenotype inactive, single point]",
O=C(Nc1ccccc1)c1cn(-c2ccccc2)nc1-c1ccccc1,"inconclusive [phenotype inactive, single point]",
CCOc1ccc(NS(=O)(=O)c2ccc3[nH]cc(C(=O)NCc4ccccc4)c(=O)c3c2)cc1,"inconclusive [phenotype inactive, single point]",
CCOc1ccccc1NC(=O)CN1c2ccccc2S(=O)(=O)c2ccccc21,,inactive: 1.47%
O=C(Nc1ccc(F)cc1F)c1cnn(-c2ccc(F)cc2)c1-n1cccc1,,inactive: 1.78%
CCCCC(=O)OC1=C(C(=O)c2ccccc2)N(CC)S(=O)(=O)c2ccccc21,,inactive: -14.5%

SMILES,Potency,"activity change, negative = inhibition"
Cc1cc(C)n(-c2nnc(Nc3cc(Cl)ccc3C)c3ccccc23)n1,,inactive: -26.6%
CCOc1ccccc1NC(=O)C1CCN(S(=O)(=O)c2ccc3[nH]c4c(c3c2)CCCCC4)CC1,,inactive: -8.1%
CN(C(=O)c1cc2c(=O)n3ccccc3nc2n1C)c1ccccc1,,inactive: -0.903%
COc1ccc(OC)c(NC(=O)N2c3ccccc3Sc3ccccc32)c1,"inconclusive [phenotype inactive, single point]",
COc1ccc(-c2nc(SCC(=O)NC(C)CCc3ccccc3)n[nH]2)cc1 (stereo not drawn),"inconclusive [phenotype inactive, single point]",
COc1ccc(NC(=O)CSc2nc(-c3cc(OC)c(OC)c(OC)c3)[nH]c2-c2ccc(F)cc2)cc1,"inconclusive [phenotype inactive, single point]",
O=C(CSc1nc(-c2ccccc2)cn1-c1ccccc1F)Nc1ccc(F)cc1,"inconclusive [phenotype inactive, single point]",
COc1ccc(Cl)cc1NC(=O)CSc1cn(CC(=O)N2CCCCC2)c2ccccc12,"inconclusive [phenotype inactive, partial curve]",
O=C(Nc1ccccc1C(F)(F)F)c1ncoc1-c1ccco1,"inconclusive [phenotype inactive, single point]",
COc1cccc(NC(=O)CSc2nnc(-c3cccc(OC)c3)o2)c1,,inactive: -15.3%
CSc1ccc(CNC(=O)Cn2nc(N3CCN(c4ccccc4)CC3)ccc2=O)cc1,,inactive: 3.39%
Cc1cccc(NC(=O)CSc2nnc(NC(=O)Nc3ccccc3)s2)c1C,"inconclusive [phenotype inactive, single point]",
COc1cccc(C2CC(=O)Nc3c2ccc(C)c3C)c1OC (stereo not drawn),"inconclusive [phenotype inactive, partial curve, poor fit]",
COc1ccc(S(=O)(=O)c2c(Nc3ccccc3F)sc(C(=O)c3cccc(OC)c3)c2N)cc1,active: 4.01 µM,
COc1ccc(OC)c(NC(=O)c2cccc3c2C(=O)N(C2CCCCC2)C3)c1,"inconclusive [phenotype inactive, single point]",
COCCCn1c(=N)c(C(=O)NC2CCCC2)cc2c(=O)n3cccc(C)c3nc21,"inconclusive [phenotype inactive, partial curve]",
COc1ccc(CNC(=O)c2ccc3c(c2)nc2n3CCCCC2)cc1,,inactive: -8.98%
O=C(Nc1cccc(Cl)c1)N1CC2CCCN2c2ccccc21 (stereo not drawn),"inconclusive [phenotype inactive, single point]",
CCOc1ccc(NC(=O)Cn2c(=O)n(CCCCC(=O)NCCc3ccc(Cl)cc3)c(=O)c3ccccc32)cc1,"inconclusive [phenotype inactive, single point]",
N#C/C(=C\c1ccc(OCc2ccc(Cl)cc2Cl)cc1)c1nc2ccccc2[nH]1,"inconclusive [phenotype inactive, partial curve]",
COc1ccc(-c2c(C)nn3c(C(F)(F)F)cc(-c4ccc(C)cc4)nc23)cc1,"inconclusive [phenotype inactive, single point]",

SMILES,Potency,"activity change, negative = inhibition"
CCOc1ccc(-c2c(C)nn3c(C)c(C(=O)NCCN(C)C)cnc23)cc1OCC,,inactive: -4.46%
COc1ccccc1Cc1nc2ccccc2nc1SCC(=O)Nc1c(C)cccc1C,,inactive: 2.39%
COc1ccc(NC(=O)c2cc(-c3ccc(F)cc3)no2)cc1OC,"inconclusive [phenotype inactive, single point]",
CCc1ccc(NC(=O)Cn2nc(C(F)(F)F)c3c2CCCC3)cc1,"inconclusive [phenotype inactive, single point]",
O=C(CCCn1c(=O)[nH]c2ccc(Br)cc2c1=O)N1CCN(c2cccc(Cl)c2)CC1,"inconclusive [phenotype inactive, partial curve]",
COc1ccc(N2CCN(C(=O)c3cnc(N4CCOCC4)c4ccccc34)CC2)cc1,"inconclusive [phenotype inactive, single point]",
CCOc1ccccc1CNCc1c(C(=O)O)n(Cc2ccccc2)c2cc(OC)ccc12,,inactive: 5.35%
O=C(NCc1cccc(Cl)c1)C1CCCN(c2nn3cc(-c4ccc(F)cc4)nc3s2)C1 (stereo not drawn),,inactive: -26.6%
CCc1cccc(NC(=O)C2CCCN2S(=O)(=O)c2ccc3nc(-c4ccccc4)[nH]c3c2)c1 (stereo not drawn),"inconclusive [phenotype inactive, single point]",
COc1ccc(C)cc1NC(=O)c1nnn(CC(=O)Nc2c(C)cccc2C)c1N,active: 9.15 µM,
COCCNC(=O)c1nn(-c2ccc(C)cc2)c(=O)c2c1c1ccccc1n2C,"inconclusive [phenotype inactive, single point]",
COc1c(C)cccc1C(=O)Nc1ccc(-c2nc3ccccc3s2)c(Cl)c1,"inconclusive [phenotype inactive, single point]",
CCN(CC)CCCNC(=O)c1ccc(Cn2c(SCc3ccccc3)nc3cccnc32)cc1,,inactive: -17.1%
Cc1cccc(NC(=O)C2CCCN2S(=O)(=O)c2ccc3nc(-c4ccccc4)[nH]c3c2)c1 (stereo not drawn),"inconclusive [phenotype inactive, single point]",
O=C(NCc1ccccc1)c1ccc(NC(=O)N2CC3CCCN3c3ccccc32)cc1 (stereo not drawn),"inconclusive [phenotype inactive, single point]",
COc1ccc(NC(=O)c2cc3c(s2)-c2c(C)cccc2OC3)cc1Cl,active: 15.8 µM,
O=C(NCc1ccc2c(c1)CCN2C(=O)c1ccccc1)Nc1cccc(C(F)(F)F)c1,,inactive: -12%
Cc1ccc(CCNC(=O)c2ccc3nc(N4CCC(C)CC4)sc3c2)cc1,,inactive: 0.269%
Cc1ncc(CO)c2c1Oc1nc(-c3ccccc3Cl)nc(SCc3ccccc3F)c1C2,"inconclusive [phenotype inactive, partial curve, poor fit]",
CCn1cc2nc(SCc3cc(C)ccc3C)n(CCc3ccccc3)c(=O)c2n1,"inconclusive [phenotype inactive, single point]",
COc1ccc(S(=O)(=O)NCCc2nnc3ccc(SCC(=O)Nc4ccccc4C)nn23)cc1,"inconclusive [phenotype inactive, single point]",
